The record followed here is paper PMC11110689.

By UniProt entry, the sequences of proteins in these tests, tags left out.
UniProt Q9NWT6: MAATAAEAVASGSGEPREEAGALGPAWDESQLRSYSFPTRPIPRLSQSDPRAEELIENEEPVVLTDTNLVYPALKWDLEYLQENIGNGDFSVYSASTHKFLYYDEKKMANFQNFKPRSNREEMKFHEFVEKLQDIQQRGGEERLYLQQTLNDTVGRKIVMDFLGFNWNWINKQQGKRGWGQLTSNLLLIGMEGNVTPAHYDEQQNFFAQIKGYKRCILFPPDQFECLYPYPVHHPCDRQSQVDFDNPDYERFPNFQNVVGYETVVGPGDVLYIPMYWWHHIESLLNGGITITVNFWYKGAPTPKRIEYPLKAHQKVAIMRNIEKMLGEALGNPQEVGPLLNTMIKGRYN

To fix the notation:
B1: IκBα, P25963 1-317 (protein)
chain: MFQAAERPQEWAMEGPRDGLKKERLLDDRHDSGLDSMKDEEYEQMVKELQEIRLEPQEVPRGSEPWKQQLTEDGDSFLHLAIIHEEKALTMEVIRQVKGDLAFLNFQNNLQQTPLHLAVITNQPEIAEALLGAGCDPELRDFRGNTPLHLACEQGCLASVGVLTQSCTTPHLHSILKATNYNGHTCLHLASIHGYLGIVELLVSLGADVNAQEPCNGRTALHLAVDLQNPDLVSLLLKCGADVNRVTYQGYSPYQLTWGRPSTRIQQQLGQLTLENLQMLPESEDEESYDTESEFTEFTEDELPYDDCVFGGQRLTL
B2: p100 (protein, UniProt Q00653-1 1-900)
chain: MESCYNPGLDGIIEYDDFKLNSSIVEPKEPAPETADGPYLVIVEQPKQRGFRFRYGCEGPSHGGLPGASSEKGRKTYPTVKICNYEGPAKIEVDLVTHSDPPRAHAHSLVGKQCSELGICAVSVGPKDMTAQFNNLGVLHVTKKNMMGTMIQKLQRQRLRSRPQGLTEAEQRELEQEAKELKKVMDLSIVRLRFSAFLRASDGSFSLPLKPVISQPIHDSKSPGASNLKISRMDKTAGSVRGGDEVYLLCDKVQKDDIEVRFYEDDENGWQAFGDFSPTDVHKQYAIVFRTPPYHKMKIERPVTVFLQLKRKRGGDVSDSKQFTYYPLVEDKEEVQRKRRKALPTFSQPFGGGSHMGGGSGGAAGGYGGAGGGGSLGFFPSSLAYSPYQSGAGPMGCYPGGGGGAQMAATVPSRDSGEEAAEPSAPSRTPQCEPQAPEMLQRAREYNARLFGLAQRSARALLDYGVTADARALLAGQRHLLTAQDENGDTPLHLAIIHGQTSVIEQIVYVIHHAQDLGVVNLTNHLHQTPLHLAVITGQTSVVSFLLRVGADPALLDRHGDSAMHLALRAGAGAPELLRALLQSGAPAVPQLLHMPDFEGLYPVHLAVRARSPECLDLLVDSGAEVEATERQGGRTALHLATEMEELGLVTHLVTKLRANVNARTFAGNTPLHLAAGLGYPTLTRLLLKAGADIHAENEEPLCPLPSPPTSDSDSDSEGPEKDTRSSFRGHTPLDLTCSTKVKTLLLNAAQNTMEPPLTPPSPAGPGLSLGDTALQNLEQLLDGPEAQGSWAELAERLGLRSLVDTYRQTTSPSGSLLRSYELAGGDLAGLLEALSDMGLEEGVRLLRGPETRDKLPSTAEVKEDSAYGSQSVEQEAEKLGPPPEPPGGLCHGHPQPQVH
B3: IκBβ ARD 1–3 (amino acids 1–166) (domain or fragment, UniProt Q15653 1-166)
chain: MAGVACLGKAADADEWCDSGLGSLGPDAAAPGGPGLGAELGPGLSWAPLVFGYVTEDGDTALHLAVIHQHEPFLDFLLGFSAGTEYMDLQNDLGQTALHLAAILGETSTVEKLYAAGAGLCVAERRGHTALHLACRVGAHACARALLQPRPRRPREAPDTYLAQGP
B4: IκBε (protein, UniProt O00221 1-500)
chain: MNQRRSESRPGNHRLQAYAEPGKGDSGGAGPLSGSARRGRGGGGAIRVRRPCWSGGAGRGGGPAWAVRLPTVTAGWTWPALRTLSSLRAGPSEPHSPGRRPPRAGRPLCQADPQPGKAARRSLEPDPAQTGPRPARAAGMSEARKGPDEAEESQYDSGIESLRSLRSLPESTSAPASGPSDGSPQPCTHPPGPVKEPQEKEDADGERADSTYGSSSLTYTLSLLGGPEAEDPAPRLPLPHVGALSPQQLEALTYISEDGDTLVHLAVIHEAPAVLLCCLALLPQEVLDIQNNLYQTALHLAVHLDQPGAVRALVLKGASRALQDRHGDTALHVACQRQHLACARCLLEGRPEPGRGTSHSLDLQLQNWQGLACLHIATLQKNQPLMELLLRNGADIDVQEGTSGKTALHLAVETQERGLVQFLLQAGAQVDARMLNGCTPLHLAAGRGLMGISSTLCKAGADSLLRNVEDETPQDLTEESLVLLPFDDLKISGKLLLCTD
B5: Bcl-3 (protein, UniProt P20749 1-454)
chain: MPRCPAGAMDEGPVDLRTRPKAAGLPGAALPLRKRPLRAPSPEPAAPRGAAGLVVPLDPLRGGCDLPAVPGPPHGLARPEALYYPGALLPLYPTRAMGSPFPLVNLPTPLYPMMCPMEHPLSADIAMATRADEDGDTPLHIAVVQGNLPAVHRLVNLFQQGGRELDIYNNLRQTPLHLAVITTLPSVVRLLVTAGASPMALDRHGQTAAHLACEHRSPTCLRALLDSAAPGTLDLEARNYDGLTALHVAVNTECQETVQLLLERGADIDAVDIKSGRSPLIHAVENNSLSMVQLLLQHGANVNAQMYSGSSALHSASGRGLLPLVRTLVRSGADSSLKNCHNDTPLMVARSRRVIDILRGKATRPASTSQPDPSPDRSANTSPESSSRLSSNGLLSASPSSSPSQSPPRDPPGFPMAPPNFFLPSPSPPAFLPFAGVLRGPGRPVPPSPAPGGS
B6: truncated IκBβ fragment containing the N-terminal 126 aa (domain or fragment, UniProt Q15653 1-126)
chain: MAGVACLGKAADADEWCDSGLGSLGPDAAAPGGPGLGAELGPGLSWAPLVFGYVTEDGDTALHLAVIHQHEPFLDFLLGFSAGTEYMDLQNDLGQTALHLAAILGETSTVEKLYAAGAGLCVAERR
B7: IκBβ with deletion of aa 127–136 (protein, UniProt Q15653)
chain: MAGVACLGKAADADEWCDSGLGSLGPDAAAPGGPGLGAELGPGLSWAPLVFGYVTEDGDTALHLAVIHQHEPFLDFLLGFSAGTEYMDLQNDLGQTALHLAAILGETSTVEKLYAAGAGLCVAERRVGAHACARALLQPRPRRPREAPDTYLAQGPDRTPDTNHTPVALYPDSDLEKEEEESEEDWKLQLEAENYEGHTPLHVAVIHKDVEMVRLLRDAGADLDKPEPTCGRSPLHLAVEAQAADVLELLLRAGANPAARMYGGRTPLGSAMLRPNPILARLLRAHGAPEPEGEDEKSGPCSSSSDSDSGDEGDEYDDIVVHSSRSQTRLPPTPASKPLPDDPRPV
B8: IκBβ with deletion of aa 117–126 (protein, UniProt Q15653)
chain: MAGVACLGKAADADEWCDSGLGSLGPDAAAPGGPGLGAELGPGLSWAPLVFGYVTEDGDTALHLAVIHQHEPFLDFLLGFSAGTEYMDLQNDLGQTALHLAAILGETSTVEKLYAAGHTALHLACRVGAHACARALLQPRPRRPREAPDTYLAQGPDRTPDTNHTPVALYPDSDLEKEEEESEEDWKLQLEAENYEGHTPLHVAVIHKDVEMVRLLRDAGADLDKPEPTCGRSPLHLAVEAQAADVLELLLRAGANPAARMYGGRTPLGSAMLRPNPILARLLRAHGAPEPEGEDEKSGPCSSSSDSDSGDEGDEYDDIVVHSSRSQTRLPPTPASKPLPDDPRPV
B9: IκBβ with deletion of aa 132–141 (protein, UniProt Q15653)
chain: MAGVACLGKAADADEWCDSGLGSLGPDAAAPGGPGLGAELGPGLSWAPLVFGYVTEDGDTALHLAVIHQHEPFLDFLLGFSAGTEYMDLQNDLGQTALHLAAILGETSTVEKLYAAGAGLCVAERRGHTALCARALLQPRPRRPREAPDTYLAQGPDRTPDTNHTPVALYPDSDLEKEEEESEEDWKLQLEAENYEGHTPLHVAVIHKDVEMVRLLRDAGADLDKPEPTCGRSPLHLAVEAQAADVLELLLRAGANPAARMYGGRTPLGSAMLRPNPILARLLRAHGAPEPEGEDEKSGPCSSSSDSDSGDEGDEYDDIVVHSSRSQTRLPPTPASKPLPDDPRPV
B10: IκBβ with deletion of aa 122–131 (protein, UniProt Q15653)
chain: MAGVACLGKAADADEWCDSGLGSLGPDAAAPGGPGLGAELGPGLSWAPLVFGYVTEDGDTALHLAVIHQHEPFLDFLLGFSAGTEYMDLQNDLGQTALHLAAILGETSTVEKLYAAGAGLCHLACRVGAHACARALLQPRPRRPREAPDTYLAQGPDRTPDTNHTPVALYPDSDLEKEEEESEEDWKLQLEAENYEGHTPLHVAVIHKDVEMVRLLRDAGADLDKPEPTCGRSPLHLAVEAQAADVLELLLRAGANPAARMYGGRTPLGSAMLRPNPILARLLRAHGAPEPEGEDEKSGPCSSSSDSDSGDEGDEYDDIVVHSSRSQTRLPPTPASKPLPDDPRPV
B11: IκBβ with deletion of aa 137–146 (protein, UniProt Q15653)
chain: MAGVACLGKAADADEWCDSGLGSLGPDAAAPGGPGLGAELGPGLSWAPLVFGYVTEDGDTALHLAVIHQHEPFLDFLLGFSAGTEYMDLQNDLGQTALHLAAILGETSTVEKLYAAGAGLCVAERRGHTALHLACRLQPRPRRPREAPDTYLAQGPDRTPDTNHTPVALYPDSDLEKEEEESEEDWKLQLEAENYEGHTPLHVAVIHKDVEMVRLLRDAGADLDKPEPTCGRSPLHLAVEAQAADVLELLLRAGANPAARMYGGRTPLGSAMLRPNPILARLLRAHGAPEPEGEDEKSGPCSSSSDSDSGDEGDEYDDIVVHSSRSQTRLPPTPASKPLPDDPRPV
B12: IκBβ-FLAG N266A (protein, UniProt Q15653 1-356)
chain: MAGVACLGKAADADEWCDSGLGSLGPDAAAPGGPGLGAELGPGLSWAPLVFGYVTEDGDTALHLAVIHQHEPFLDFLLGFSAGTEYMDLQNDLGQTALHLAAILGETSTVEKLYAAGAGLCVAERRGHTALHLACRVGAHACARALLQPRPRRPREAPDTYLAQGPDRTPDTNHTPVALYPDSDLEKEEEESEEDWKLQLEAENYEGHTPLHVAVIHKDVEMVRLLRDAGADLDKPEPTCGRSPLHLAVEAQAADVLELLLRAGAAPAARMYGGRTPLGSAMLRPNPILARLLRAHGAPEPEGEDEKSGPCSSSSDSDSGDEGDEYDDIVVHSSRSQTRLPPTPASKPLPDDPRPV
B13: IκBβ-FLAG D195A (protein, UniProt Q15653 1-356)
chain: MAGVACLGKAADADEWCDSGLGSLGPDAAAPGGPGLGAELGPGLSWAPLVFGYVTEDGDTALHLAVIHQHEPFLDFLLGFSAGTEYMDLQNDLGQTALHLAAILGETSTVEKLYAAGAGLCVAERRGHTALHLACRVGAHACARALLQPRPRRPREAPDTYLAQGPDRTPDTNHTPVALYPDSDLEKEEEESEEAWKLQLEAENYEGHTPLHVAVIHKDVEMVRLLRDAGADLDKPEPTCGRSPLHLAVEAQAADVLELLLRAGANPAARMYGGRTPLGSAMLRPNPILARLLRAHGAPEPEGEDEKSGPCSSSSDSDSGDEGDEYDDIVVHSSRSQTRLPPTPASKPLPDDPRPV
B14: IκBβ ARD 4–6 (amino acids 167–356) (domain or fragment, UniProt Q15653 167-356)
chain: DRTPDTNHTPVALYPDSDLEKEEEESEEDWKLQLEAENYEGHTPLHVAVIHKDVEMVRLLRDAGADLDKPEPTCGRSPLHLAVEAQAADVLELLLRAGANPAARMYGGRTPLGSAMLRPNPILARLLRAHGAPEPEGEDEKSGPCSSSSDSDSGDEGDEYDDIVVHSSRSQTRLPPTPASKPLPDDPRPV

These are yes or no findings as the source states them, for the method shown. Some entries that bind do so weakly or less than the wild type. For some assays here: Where a sequence is shown, tags or fusion partners need not be part of it.

The first assay has as its target factor inhibiting HIF (FIH), V5-tagged (FIH-V5), Q9NWT6. The assay can be described thus: immunoblot of a denaturation-resistant (SDS-PAGE) complex; HEK293 cells transiently co-transfected, normoxia; complex seen at the summed molecular weight; also with FG-4592 (0.1 mM), DM-NOFD (1 mM) or MG132 (10 μM), and with lysates treated with DTT or β-mercaptoethanol, 5 min at 95 °C; shows only complexes that resist denaturation. The settings on record: remark: other sources report otherwise.
For B1, the binding entry is “no binding”.

A further assay concerns the target factor inhibiting HIF (FIH), V5-tagged (FIH-V5) (UniProt Q9NWT6). The description is as above.
Conditions: not given
For B2, the binding entry was “no binding”.
Turning to B3, the binding entry is “binds”.
For B4, the binding result is given as “no binding”.
Consider B5, for which the binding result is “no binding”.
Consider B6, for which the binding entry is on record as “no binding”.
Still for that read-out and setting: under B7 stands “binds”.
Still for that read-out and setting: under B8 stands “no binding”.
Regarding B9, the binding entry is recorded as “binds”.
For B10, the binding entry was “no binding”.
Same read-out and setting: under B11 stands “binds”.
Consider B12, for which the binding result was “binds”.
Take B13: the binding result is on record as “binds”.
As for B14, the binding result is reported as “no binding”.
